Among all 43,000 compounds or so, about 200 (0.47%) were called active. Not shown: some 12% with an inconclusive outcome. The call rests on the fitted dose curve; in most records, active means well fitted cell-killing curve with a large enough effect; inconclusive means small, poorly fitted or top-dose-only effect, or effect the other way; inactive means flat fitted curve, though single readings scatter. The list shows a part of the results.
Test: Cell viability qHTS assay in S16 Pmp22-F2sN cells; further: nearly all actives have a fitted effect of over 65% in size
Conditions: S16 Pmp22-F2sN Schwann cells viability, CellTiter-Glo, 24 h; series mostly up to 57.5 µM; activity change, negative = cytotoxicity: at the top concentration
Procedure, shortened: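 Used to flag compounds lowering reporter output through toxicity, this quantitative HTS measures ATP-based CellTiter-Glo luminescence in S16 Pmp22-F2sN Schwann cells after 24 h compound exposure at 37C.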
On the % scale 0 is the no-effect control and ±100 the full control effect.

Row | SMILES | activity change, negative = cytotoxicity
1 | O=C(NCCc1ccccc1)c1nn(-c2ccc(F)cc2)nc1CO | inactive: -7.25%
2 | CCOc1ccc(C2c3[nH]c4ccccc4c3CCN2C(=O)CSCc2ccc(F)cc2)cc1 (stereo not drawn) | inactive: -9.41%
3 | Cc1ccc(F)cc1NC(=O)Cn1c(C)cc(C)c(C#N)c1=O | inactive: -2.56%
4 | CC1CCN(c2nc3ccc(C(=O)NCc4ccccc4Cl)cc3s2)CC1 | inactive: -0.811%
5 | O=C(NC1CCCC1)c1ccc2c(c1)N(Cc1ccccc1)C(=O)c1ccccc1S2 | inactive: -1.24%
6 | Cc1ccc(S(=O)(=O)c2nnn3c2nc(NCCc2ccccc2)c2sccc23)cc1 | inactive: -0.685%
7 | COc1ccc(N2CCN(Cc3nc4c(c(=O)[nH]c(=O)n4C)n3CC(C)C)CC2)cc1 | inactive: 16.8%
8 | O=C(NCc1cccc(Br)c1)c1ccc(NC(=O)N2CCCCc3ccccc32)cc1 | inactive: -24.3%
9 | COCCCNC(=O)Cn1c(=O)nc(-c2ccccc2)c2ccccc21 | inactive: 5.85%
10 | Cc1ccc(-n2nc3c(=O)n(CC(=O)NCCC(C)C)nc(C)c3c2C)cc1 | inactive: -3%
11 | CC(CNC(=O)c1nnc(Cc2ccc(F)cc2)o1)c1ccccc1 (stereo not drawn) | inactive: 4.74%
12 | O=C(Cn1cc(S(=O)(=O)Cc2cccc(Cl)c2)c2ccccc21)Nc1ccccc1Cl | inactive: 9.16%
13 | COc1cccc(NC(=O)CSc2nccn2C2CCCC2)c1 | inactive: 1.25%
14 | CCCCC12CN3CC(C)(CN(C1)C3c1ccc(O)c(OC)c1)C2=O (stereo not drawn) | inactive: 0.0571%
15 | COc1ccc(Cn2cc(C(=O)c3ccc(C)c(C)c3)c(=O)c3ccccc32)cc1 | inactive: -17.4%
16 | CCOc1ccc(CCNC(=O)c2cc(C)nc3c2c(C)nn3-c2cccc(F)c2)cc1 | inactive: 5.59%
17 | Cc1cccn2c(=O)c(C(=O)NCCc3ccccc3)cnc12 | inactive: -0.297%
18 | COc1ccc(C)cc1NS(=O)(=O)c1c(C(=O)N2CCCCCC2)c(C)n(C)c1C | inactive: 10.7%
19 | COc1ccc(CC(=O)NCCc2csc(-c3cccc(C)c3)n2)cc1 | inactive: 3.45%
20 | CC(C)OCCCNC(=O)Cn1ccc2cc(S(=O)(=O)N3CCCCCC3)ccc21 | inactive: -14.9%
21 | Cc1cccc(OCC(=O)Nc2ccc(-c3nc4ccccc4o3)cc2)c1C | inactive: 15.6%
22 | CC(C)CNC(=O)N1[C@H](c2cccs2)[C@@H](C)C(=O)[C@@H](C)[C@@H]1c1cccs1 | inactive: 3.93%
23 | Cc1oc(-c2ccccc2Cl)nc1Cn1c(SCc2cccc(F)c2)nc2cccnc21 | inactive: -24.5%
24 | Cc1ccc(-n2c(=O)[nH]c3cc(C(=O)NCc4ccccc4)ccc3c2=O)cc1 | inactive: -0.232%

Row | SMILES | activity change, negative = cytotoxicity
25 | CC(=O)c1cccc(NC(=O)CC(c2ccc(C)cc2)N2Cc3ccccc3C2=O)c1 (stereo not drawn) | inactive: -3.96%
26 | Cc1nc(-c2ccccc2)sc1-c1ccc(SCC(=O)NCc2ccc(Cl)cc2)nn1 | inactive: 24%
27 | CCn1nc(C)c(CCN(C)C(=O)Nc2cc(OC)c(OC)c(OC)c2)c1C | inactive: -1.52%
28 | Cc1ccc(N2CC(NC(=O)c3ccc(S(=O)(=O)N4CCOCC4)cc3)CC2=O)cc1 (stereo not drawn) | inactive: 3.44%
29 | CCOC(=O)c1cnn(-c2ccc(C(=O)Nc3cccc(C(C)=O)c3)cc2)c1N | inactive: 1.34%
30 | CCN(C(=O)Nc1cn(CC(C)C)c(=O)c2ccccc12)c1cc(C)ccc1C | inactive: 4.98%
31 | Cc1ccc2nc(Nc3ccc(C)c(F)c3)c3nncn3c2c1 | inactive: -5.63%
32 | Cc1ccc(CNC(=O)CCn2cnc3ccccc3c2=O)cc1 | inactive: -6.45%
33 | Cc1c(Cl)cccc1NC(=O)C1CCN(c2ncnc3c2nc2n3CCCCC2)CC1 | inactive: 8.13%
34 | O=C(CCn1c(=O)c2cccn2c2cccnc21)N1CCN(c2ccccc2F)CC1 | inactive: 5.91%
35 | Fc1cccc(-c2nnn3c2nc(NCCc2ccccc2)c2ccccc23)c1 | inactive: 11.7%
36 | COc1ccc2cc(C(=O)NCc3ccc4c(c3)CCN4C(=O)c3ccc(F)cc3)[nH]c2c1 | inactive: 4.42%
37 | O=C(COCc1cc(-c2cccs2)on1)N1CCN(c2cccc(Cl)c2)CC1 | inactive: -18.3%
38 | CCOc1ccc(NC(=O)c2sc3nc4c(c(-c5ccc(OC)cc5)c3c2N)C(=O)CC(C)(C)C4)cc1 | inactive: 14%
39 | CCOc1ccc(-n2cc(-c3ccccc3)c3c(N4CCN(c5ccccc5OC)CC4)ncnc32)cc1 | inactive: -0.234%
40 | COC(=O)c1c(NC(=O)/C(C#N)=C/c2ccccc2)sc2c1CCC2 | inactive: 3.6%
41 | CCCCN(CC)C(=O)CSc1c2c(nc3ccc(Cl)cc13)CCCC2 | inactive: 5.05%
42 | Cc1oc(-c2ccc(Cl)cc2)nc1CSc1nc2ncccc2[nH]1 | inactive: 5.55%
43 | O=C(Nc1ccc2oc(-c3ccncc3)nc2c1)c1ccccc1Cl | inactive: -0.296%
44 | COc1cccc(NC(=O)c2ccc(-c3nc(COc4ccccc4)c(C)o3)cc2)c1 | inactive: 5.49%
45 | O=C(OCc1cc(=O)n2nc(C3CCCCC3)sc2n1)c1ccc(F)cc1 | inactive: 1.38%
46 | CCOCCCNC(=O)CN1C(=O)COc2ccc(S(=O)(=O)N3CCCC3)cc21 | inactive: -1.1%
47 | COc1ccccc1Nc1cc(C(=O)NC2CCC(C)CC2)c2ccccc2n1 (stereo not drawn) | inactive: -14%
48 | CCC(=O)N1c2ccccc2CC1C(=O)NCc1ccccc1Cl (stereo not drawn) | inactive: 9.78%

— PubChem BioAssay AID1508642 (National Center for Advancing Translational Sciences (NCATS), 2021)
